The record followed here is publication PMC12040169 (PLOS Biology, 2025).

This is one part of the list.

This assay has as its system T1, C. trachomatis L2/434/Bu expressing GFP (CTL2-GFP).
T1 construct: L2/434/Bu GFP intracellular growth in HeLa cells
Also noted: species or system HeLa; C. trachomatis total inclusion area by high-content imaging, normalised to DMSO. Particulars: total inclusion area; 28.5 h, 10 µM; inhibitor. In outline:
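Following bulk GFP and resorufin fluorescence reads, infected cells were fixed, Hoechst-stained and imaged on a high-content platform. Inclusion total area and number per well served as growth proxies; nuclei counts indicated host viability. MICs were derived as for the fluorescence assay.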
As to `O=C(O)CS(=O)(=O)c1ccccc1C(=O)O` [CBK261083], the “% of control remaining” value amounted to 96.4246.

Consider `COC(=O)c1c(NC(=O)C2CC(=O)NN2C)sc2c1CCC2` (centres unmarked) [CBK269218A], for which the “% of control remaining” value is 121.308.

As to `COc1ccc(CCN2CCC(Oc3nccnc3OCCN3C(=O)CCC3=O)CC2)cc1OC` [CBK084359], the “% of control remaining” value came to 84.791.

Turning to `CCCC/C=C/c1nccnc1NCc1ccncc1` [CBK037500], the “% of control remaining” value came to 67.2026.

As for `Nc1c(-c2ccsc2)cnc2cccnc12` [CBK081208], the “% of control remaining” value is listed as 101.438.

As to `CC(C)c1[nH]c2ncccc2c1CN1CCSCC1` [CBK285312], the “% of control remaining” value worked out at 78.0245.

Turning to `COc1ccccc1-c1nc(C2CCCN2C(=O)CCCC(=O)O)n2ccccc12` (centres unmarked) [CBK046600], the “% of control remaining” value turned out to be 109.712.

For the molecule `CN(C)CCN(C)c1cc(-c2cccc(Br)c2)nc2ccnn12` [CBK037140], the “% of control remaining” value is listed as 60.8054.

Regarding `O=c1ccc2c(-c3cccc(OCc4ccccc4)c3)ccnc2[nH]1` [CBK073739], the “% of control remaining” value was determined as 74.2955.

Take `Cc1ccc(OCC(=O)NC(Cc2ccccc2)C(=O)O)cc1` (centres unmarked) [CBK217681]: the “% of control remaining” value was 97.9749.

For the molecule `O=C(c1ccc2[nH]ccc2c1)N1CCc2ccccc21` [CBK200269], the “% of control remaining” value stood at 88.023.

With `CCOC(=O)C1=C(C)N(CC)C(=O)NC1c1cc(OC)c(OC)c(OC)c1` (centres unmarked) [CBK091912], the “% of control remaining” value is 92.5287.

As to `CC1CN(CCCCNCc2cn(C)nc2-c2cccnc2)CC(C)O1` (centres unmarked) [CBK304453], the “% of control remaining” value amounted to 54.0161.

`COCc1cc(C[C@H]2CNCC[C@H]2CC(=O)N2CCCCC2)no1` [CBK288899]: the “% of control remaining” value is 87.4883.

Take `O=C1OCCN1C1CCN(S(=O)(=O)c2cccs2)CC1` [CBK043313]: the “% of control remaining” value turned out to be 106.799.

As to `CC(C)n1nccc1C(=O)NCC(c1ccccc1F)N1CCCC1` (centres unmarked) [CBK283032], the “% of control remaining” value was found to be 93.8551.

As to `CC1SC2(C(=O)Nc3ccccc32)N(c2ccc(Oc3ccccc3)cc2)C1=O` (centres unmarked) [CBK103750], the “% of control remaining” value amounted to 89.1569.

Take `CN1CCN(C(=O)c2cc(Br)cnc2NCCOc2ccccc2)CC1` [CBK076231]: the “% of control remaining” value was 102.026.

`COCCN(C(=O)c1[nH]c2c(F)cccc2c1C)C1CCN(C)CC1` [CBK307386]: the “% of control remaining” value is given as 75.5163.

As for `COc1ccc(C(=O)N2CCC3(CCN(Cc4cccc(C#N)c4)C3)C2)cc1OC` (centres unmarked) [CBK132153], the “% of control remaining” value is listed as 94.9004.

Turning to `O=C(O)c1cccc(Nc2ncnc3ccccc23)c1` [CBK073042], the “% of control remaining” value was found to be 95.6651.

`Clc1ccc(-c2nn3c4cc(N5CCNCC5)ccc4nc3c3ccccc23)cc1` [CBK268319]: the “% of control remaining” value was determined as 104.796.

In the case of `Cc1c(C(=O)N(CC(=O)O)C2CC2)nnn1-c1ccc(Cl)cc1F` [CBK304738], the “% of control remaining” value is given as 72.1446.

As to `COc1ccc([N+](=O)[O-])cc1Nc1nc(-c2ccccc2)nc2ccccc12` [CBK265913], the “% of control remaining” value came out at 87.4263.

Consider `Cc1cc(NC(c2cccc([N+](=O)[O-])c2)c2ccc3cccnc3c2O)no1` (centres unmarked) [CBK296083], for which the “% of control remaining” value is listed as 87.7697.

Take `Cc1cc(I)ccc1NC(=O)CN(c1ccccc1)S(=O)(=O)c1ccccc1[N+](=O)[O-]` [CBK265954]: the “% of control remaining” value was 58.8783.

Consider `C[C@]12CN(Cc3cccs3)C[C@H]1NC(=O)c1ccccc1C2=O` [CBK284702], for which the “% of control remaining” value worked out at 107.917.

`COc1cccc(Oc2nccnc2-c2ccc(F)cc2)c1` [CBK106897]: the “% of control remaining” value was found to be 84.0219.

With `O=C(O)c1ccc(NC(=O)c2ccc(S(=O)(=O)N3CCCCC3)cc2)cc1` [CBK267813], the “% of control remaining” value is on record as 98.3749.

On to `CC(C)c1c(SCCN)[nH]c2ccccc12` [CBK017265C], for which the “% of control remaining” value amounted to 36.308.

As for `Cc1ccc2c(c1)C(C)(c1ccccc1)CC(C)(C)N2C(=O)CSc1nncn1C` (centres unmarked) [CBK022397], the “% of control remaining” value amounted to 99.4993.

As for `COc1cncc(-c2cc(NCc3cc(OC)c(OC)c(OC)c3)ncn2)c1` [CBK091183], the “% of control remaining” value is given as 87.7046.

As for `CCCC1NCCn2cccc21` (centres unmarked) [CBK007074F], the “% of control remaining” value is recorded as 22.1807.

For the molecule `CN1CCN(c2ccc(NC(=O)c3ccc([N+](=O)[O-])o3)cc2)CC1` [CBK269727], the “% of control remaining” value is recorded as 0.3106.

For `CC(Oc1cccc2ccccc12)C(=O)N/N=C/c1ccc(Cl)cc1Cl` (centres unmarked) [CBK262218], the “% of control remaining” value is 104.8.

Turning to `CC(C)=C(NC(=O)c1ccccc1)C(=O)Nc1cccc(C(=O)O)c1` [CBK058180], the “% of control remaining” value is on record as 94.9589.

As for `CS(=O)(=O)c1ccc(-n2ncc(-c3ccc(C(F)(F)F)cc3)n2)cc1` [CBK112698], the “% of control remaining” value came to 90.5218.

As for `CC(C)(C)C(=O)N1CCC(C(=O)NC(c2ccc3c(c2)OCO3)c2ccccn2)CC1` (centres unmarked) [CBK060074], the “% of control remaining” value is on record as 101.755.

For the molecule `Cn1nc(C2CCCC2)cc1[C@H]1CN2CC[C@H]1C[C@@H]2CNC(=O)N1CCOCC1` [CBK288740], the “% of control remaining” value worked out at 88.4064.

Consider `CCOc1ccc2nc(NS(=O)(=O)c3ccc4c5c(cccc35)C(=O)N4)sc2c1` [CBK262162], for which the “% of control remaining” value worked out at 99.7189.

Regarding `O=C(c1cccnc1)C1CCN(C(=O)C2CCCC2)CC1` [CBK283508], the “% of control remaining” value is 99.5378.

In the case of `CN1CC=C(/C=C/c2c[nH]c3ccccc23)CC1` [CBK283602], the “% of control remaining” value is reported as 17.6235.

Turning to `CCc1nn(CC(=O)N(CC)CC)c(=O)c2cc3oc(C)cc3n12` [CBK283583], the “% of control remaining” value is reported as 56.9007.

As for `COC(=O)[C@@H](C)NC(=O)[C@@H]1CN(C(=O)c2cccc(F)c2)CCN1C(C)=O` [CBK289620], the “% of control remaining” value was determined as 109.745.

For `O=C(O)CSCC(=O)Nc1ccc(Cl)cn1` [CBK057543], the “% of control remaining” value is 87.7671.

`CC1CC(Nc2ccccc2)c2ccccc2N1` (centres unmarked) [CBK057947]: the “% of control remaining” value is 100.093.

`Cc1ccc2c(c1)nc1n2CCC1O` (centres unmarked) [CBK113622]: the “% of control remaining” value was 93.4222.

With `CC(=O)Nc1cccc(NC(=O)c2cc(-c3ccccc3)nn2-c2ccccc2)c1` [CBK296997], the “% of control remaining” value is listed as 93.3824.

Turning to `CCOC(=O)N1CCC(NS(=O)(=O)c2cc(Br)c(Cl)s2)CC1` [CBK045472], the “% of control remaining” value came to 90.1536.

Consider `COc1cc(CNCC2CCCO2)cc(Cl)c1OCC(N)=O` (centres unmarked) [CBK270238C], for which the “% of control remaining” value worked out at 94.0935.

Consider `COC(=O)c1ccc(N2CCN(Cc3ccc(CO)o3)C(C)C2)cc1` (centres unmarked) [CBK305394], for which the “% of control remaining” value is on record as 76.9901.

For the molecule `COc1ccc2c(c1)C=C(/C=C/C1=CCN(C)CC1)CO2` [CBK283818], the “% of control remaining” value is 81.9497.

For the molecule `C=C1S/C(=N\c2cc(Cl)cc(Cl)c2)NC1(CC)CC` [CBK009484], the “% of control remaining” value stood at 83.4979.

Consider `CCc1nc(CC(=O)NC(c2ccc(F)cc2)C2CCCO2)cs1` (centres unmarked) [CBK306336], for which the “% of control remaining” value was determined as 100.802.

On to `CC(=C\C(=O)O)/C(=C\c1ccc(Br)cc1)C(=O)O` [CBK278280N], for which the “% of control remaining” value worked out at 104.399.

Consider `O=C(NCCc1c[nH]c2ccccc12)N1CCN(Cc2ccccc2)CC1` [CBK155646], for which the “% of control remaining” value came to 113.267.

On to `CNC(=O)C1(Cc2ccc(-c3ccccc3)cc2)CCN(C(=O)CC2CCCCC2)CC1` [CBK285763], for which the “% of control remaining” value is given as 95.5888.

In the case of `O=C(O)c1ccc(CSc2nc(-c3ccccc3)cc(C(F)(F)F)n2)o1` [CBK269514], the “% of control remaining” value is recorded as 101.871.

`CC(=O)N1CCC[C@H]2NC(=O)CNC(=O)C3(C/C=C/C[C@H]21)CCN(CC(N)=O)CC3` [CBK292135]: the “% of control remaining” value stood at 93.3282.

In the case of `CN(C)c1ncc(-c2ccc(Cl)cc2)c(C2CCCN2C(=O)CN2CCCC2)n1` (centres unmarked) [CBK286037], the “% of control remaining” value stood at 112.037.

In the case of `COCCN1C(=O)c2ccc(C(=O)Nc3cc(C(=O)O)cc(C(=O)O)c3)cc2C1=O` [CBK268444], the “% of control remaining” value is listed as 103.137.

Take `CCOC(=O)c1cc(-c2cccc(Cl)c2)oc1C` [CBK045775]: the “% of control remaining” value turned out to be 83.876.

Turning to `COc1ccccc1OCC(=O)NCc1ccc(-c2csnn2)cc1` [CBK149303], the “% of control remaining” value came to 43.6899.

For the molecule `COc1ccc(Cl)cc1S(=O)(=O)N(C)CC(=O)O` [CBK269919], the “% of control remaining” value stood at 83.6105.

With `CCOC(=O)c1c(NC(=O)CSc2nnc(C)s2)sc2c1CCC2` [CBK263183], the “% of control remaining” value is recorded as 88.6431.

As to `O=C(OCCc1c[nH]c2ccccc12)N1CCOCC1` [CBK200415], the “% of control remaining” value turned out to be 98.8356.

Take `Cc1ccc(C2(C(=O)NCCCn3ccnc3C)CCOCC2)cc1` [CBK281588]: the “% of control remaining” value stood at 108.923.

`CC(C)n1c(=O)n(CC(=O)NC2CCCC2)c2cccnc21` [CBK283700]: the “% of control remaining” value is 106.73.

As for `Cc1ccc(C2=CCN(CC(=O)NC3CCCC3)CC2)o1` [CBK283605], the “% of control remaining” value turned out to be 108.381.

Take `COc1nn(CC(=O)NC2(C)CCC2)c(=O)c2ccccc12` [CBK281603]: the “% of control remaining” value came out at 100.278.

In the case of `COC(=O)c1sccc1NC(=O)COc1ccc([N+](=O)[O-])cc1Cl` [CBK066828], the “% of control remaining” value turned out to be 105.998.

On to `Cc1ccc(-c2cc(O)n(-c3nc(C)cc(C)n3)n2)cc1` [CBK270165], for which the “% of control remaining” value was 80.8698.

For `Nc1ncnc2c1nc1n2[C@@H]2O[C@H](C1)[C@H](O)C2O` (some centres unmarked) [CBK201224], the “% of control remaining” value is 106.337.

`COc1ccc(CCCC(=O)Nc2ccccc2N2CCNCC2)cc1OC` [CBK028283T]: the “% of control remaining” value is reported as 80.9546.

In the case of `CCN(CC)C(=O)c1ccc(NS(=O)(=O)Cc2ccccc2[N+](=O)[O-])cc1` [CBK034396], the “% of control remaining” value came to 105.185.

As to `CC(=O)N[C@@H](C(=O)N1CC[C@@H]2NC(=O)[C@@H](Cc3ccccc3)NC(=O)C3(C/C=C/C[C@H]2C1)CCOCC3)C(C)C` [CBK292198], the “% of control remaining” value was 81.7123.

As for `O=C(O)c1c(NS(=O)(=O)Cc2ccccc2[N+](=O)[O-])sc2c1CCCC2` [CBK024819], the “% of control remaining” value is recorded as 91.477.

Turning to `Clc1cc2nc(SCCc3cnccn3)c(N3CCCC3)nc2cc1Cl` [CBK103700], the “% of control remaining” value is recorded as 100.661.

`CC(C)(C)OC(=O)N1CCCC(C(=O)NC(CO)Cc2ccccn2)C1` (centres unmarked) [CBK305458]: the “% of control remaining” value was 116.663.

As to `Cc1ccc(C(=O)N2CCC(CO)CC2)cc1C` [CBK083532], the “% of control remaining” value is reported as 94.6389.
